Test results as given in the supplement of paper PMC4723716.
± gives the uncertainty stated by the source. The full ranking holds about 9,900 compounds; the median of “viability index relative to DMSO control” is about 1, and the lowest 2% start at about 0.85. The list shows a part of the results.

Tested on: Plasmodium falciparum NF54 stage V gametocytes
Test: viability index relative to DMSO control (fraction); higher = less gametocyte killing
Conditions: 2.5 µM, incubation time: 72 h
Protocol: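 Broad DOS informer set and blood-stage-active DOS compounds screened in duplicate at 2.5 µM against P. falciparum NF54 stage V gametocytes with the serum-free one-step SaLSSA (1536-well): 72 h at 37 °C under low oxygen, then saponin lysis and MitoTracker Red CMXRos staining, with high-content imaging. Viability index = viable-object count divided by the plate mean of DMSO wells (0 = killed, about 1 = inactive).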

[1] = library set: Broad Institute DOS

| Compound | viability index [1] | viability index (library set: Broad Institute Blood Stage) |
| --- | --- | --- |
| C[C@@H]1CN([C@H](C)CO)C(=O)c2cc(/C=C/c3ccccc3)cnc2O[C@H]1CN(C)S(=O)(=O)c1ccccc1F | 1.18 ± 0.067 | – |
| C[C@@H]1CN([C@H](C)CO)C(=O)CCCn2cc(nn2)CO[C@@H]1CN(C)Cc1ccccc1 | 0.986 ± 0.035 | – |
| CO[C@@H](CN(C)S(=O)(=O)c1ccc(F)cc1)[C@H](C)CN(Cc1ccccc1Cl)[C@H](C)CO | 1.05 ± 0.033 | – |
| COc1cccc(NC(=O)C[C@H]2CC[C@H]3[C@H](COc4ccc(NS(=O)(=O)c5cccc(F)c5)cc4C(=O)N3C)O2)c1 | 1.08 ± 0.045 | – |
| C[C@@H]1CN([C@H](C)CO)C(=O)c2ccccc2-c2ccccc2CO[C@@H]1CN(C)Cc1cccc(C(=O)O)c1 | 0.958 ± 0.11 | – |
| O=C(C[C@@H]1C[C@@H]2c3cc(NC(=O)CC4CC4)ccc3O[C@@H]2[C@@H](CO)O1)NCC1CC1 | 1.06 ± 0.033 | – |
| C[C@@H]1CN([C@H](C)CO)C(=O)c2cc(NC(=O)CCC(F)(F)F)ccc2O[C@@H](C)CCCCO[C@H]1CN(C)C(=O)c1ccncc1 | 1.06 ± 0.044 | – |
| O=C(C[C@@H]1CC[C@H]2[C@@H](COC[C@@H](O)CN2Cc2ccc(F)cc2)O1)NCCc1ccccc1 | 1 ± 0.082 | – |
| CC[C@H]1C/C=C\CCNC(=O)CCC(=O)N1 | 1.01 ± 0.077 | – |
| C/C=C/c1ccc2c(c1)O[C@H](CN(C)C(=O)Nc1ccc(OC)cc1)[C@@H](C)CN([C@H](C)CO)S2(=O)=O | 1.05 ± 0.042 | – |
| O=C1N[C@@H](c2ccccc2)COCc2cn(nn2)CC[C@H]1Cc1ccc(C(F)(F)F)cc1 | 0.916 ± 0.072 | – |
| O=C(c1cccc(F)c1)N1CCCCN2[C@H](C1)[C@H](c1ccc(C#CC3(O)CCCC3)cc1)[C@@H]2CO | 1.01 ± 0.028 | – |
| COCc1cn(CC[C@H]2CC[C@@H](NC(=O)Nc3c(C)noc3C)[C@H](CO)O2)nn1 | 1.03 ± 0.051 | – |
| CO[C@H]1CN(C)C(=O)c2ccc(NC(=O)c3cccc(F)c3)cc2OC[C@@H](C)NC[C@@H]1C | 1.06 ± 0.047 | – |
| C[C@@H](NC(=O)C[C@H]1CC[C@@H]2[C@H](COC[C@H](O)CN2C(=O)Nc2cccc(Cl)c2)O1)c1ccccc1 | 1.07 ± 0.012 | – |
| COc1ccccc1CNC(=O)C[C@H]1C=C[C@@H](NC(=O)CC2CC2)[C@H](CO)O1 | 1.06 ± 0.046 | – |
| COc1ccccc1S(=O)(=O)N(C)C[C@@H]1Oc2cc(/C=C/c3ccccc3)ccc2S(=O)(=O)N([C@H](C)CO)C[C@H]1C | – | 0.808 ± 0.032 |
| O=C(NCC[C@@H]1CC[C@@H](NS(=O)(=O)Cc2ccccc2)[C@H](CO)O1)C1CCCCC1 | 0.941 ± 0.1 | – |
| C[C@@H]1CCCCO[C@@H](CN(C)S(=O)(=O)c2cn(C)cn2)[C@@H](C)CN([C@@H](C)CO)C(=O)c2cc(N(C)C)ccc2O1 | 1.04 ± 0.026 | – |
| C[C@H](NC(=O)C[C@@H]1CC[C@H]2[C@@H](COC[C@H](O)CN2C(=O)Nc2cccc(Cl)c2)O1)c1ccccc1 | 1.1 ± 0.046 | – |
| CO[C@H]1CC[C@H]2CCN(C)C(=O)CC3(CCCCC3)CN(C)C(=O)c3cccc(C#N)c3OC[C@H]1O2 | 1.03 ± 0.033 | – |
| CCN1CC(=O)N2[C@@H](CO)[C@@H](c3ccc(Br)cc3)[C@@H]2C1 | 1.04 ± 0.013 | – |
| CO[C@H]1CC[C@H]2CCOc3c(C#N)cccc3C(=O)N(C)C[C@H](c3ccccc3)CC(=O)N(C)C[C@@H]1O2 | 1.05 ± 0.028 | – |
| Cc1ccccc1-c1ccc2c(c1)O[C@@H](CN(C)C(=O)Nc1ccc(C(F)(F)F)cc1)[C@H](C)CN([C@H](C)CO)S2(=O)=O | 1 ± 0.058 | – |

| Compound | viability index [1] | viability index (library set: Broad Institute Blood Stage) |
| --- | --- | --- |
| C[C@H](CO)N1C[C@H](C)[C@H](CN(C)C(=O)Cc2cccnc2)Oc2cc(C#Cc3ccccc3F)ccc2S1(=O)=O | 0.891 ± 0.042 | – |
| CO[C@H](CN(C)Cc1ccc(-c2ccccn2)cc1)[C@@H](C)CN(C(=O)Nc1ccc(F)cc1)[C@@H](C)CO | 0.996 ± 0.024 | – |
| Cc1noc(C)c1S(=O)(=O)Nc1ccc2c(c1)C(=O)N([C@@H](C)CO)C[C@H](C)[C@H](CN(C)C(=O)Nc1cccc3ccccc13)OCCCC[C@H](C)O2 | 1.01 ± 0.088 | – |
| CCCNC(=O)N1[C@H](CO)[C@@H](c2ccc(-c3ccccc3F)cc2)[C@@H]1C#N | 1.12 ± 0.093 | – |
| Cc1noc(C)c1S(=O)(=O)N(C)C[C@H]1OCc2cn(nn2)CCCC(=O)N([C@H](C)CO)C[C@@H]1C | 0.952 ± 0.014 | – |
| OC[C@H]1[C@H](c2ccc(C#Cc3ccccc3F)cc2)[C@H]2CN(CC3CCOCC3)CCCCN21 | 0.935 ± 0.046 | – |
| COc1ccc2c3c([C@@H](CO)N(CC4CC4)C[C@]33CCN(CC3)C(=O)NC3CCCC3)n(C)c2c1 | 0.95 ± 0.045 | – |
| CC(C)NC(=O)N[C@@H]1CC[C@@H](CC(=O)NCCCN(C)C)O[C@H]1CO | 0.982 ± 0.024 | – |
| COCC(=O)Nc1ccc2c(c1)[C@H]1C[C@@H](CC(=O)NCc3ccc4c(c3)OCO4)O[C@H](CO)[C@H]1O2 | 1.08 ± 0.038 | – |
| COc1ccccc1-c1ccccc1[C@H]1[C@@H](CO)N(C(=O)C2CCOCC2)[C@H]1C#N | 1.15 ± 0.061 | – |
| Cc1cccc(-c2ccc([C@@H]3[C@H]4CNC[C@@H]3N4C(=O)Nc3ccccc3Cl)cc2)c1 | 1.15 ± 0.034 | – |
| CCC(=O)N1C[C@@H]2[C@H](c3ccccc31)[C@H](CO)N2Cc1ccc(F)cc1 | 1.0589 ± 0.00023 | – |
| C[C@H](CO)N1C[C@H](C)[C@H](CN(C)C(=O)c2ccc(N3CCN(C)CC3)cc2)OCc2cn(nn2)CCCC1=O | 0.9867 ± 0.0086 | – |
| CO[C@@H]1CN(C)C(=O)c2cc(NC(=O)CN(C)C)ccc2OC[C@@H](C)N(Cc2ccccc2F)C[C@H]1C | 1.058 ± 0.0065 | – |
| O=C1N[C@H](c2ccccc2)COCc2cn(nn2)CC[C@H]1Cc1cccc(Cl)c1 | 0.963 ± 0.011 | – |
| CO[C@H]1CN(C)C(=O)c2cc(NS(=O)(=O)c3cn(C)cn3)ccc2OC[C@H](C)NC[C@H]1C | 1.07 ± 0.12 | – |
| C[C@H](CO)N1C[C@H](C)[C@H](CN(C)C(=O)Nc2ccc(F)cc2)Oc2c(cccc2N(C)C)C1=O | 0.97 ± 0.16 | – |
| O=C1C[C@@H](c2ccccc2)C(=O)N[C@@H](c2ccccc2)C/C=C\C[C@@H](c2ccccc2)N1 | 1.14 ± 0.041 | – |
| Cc1noc(C)c1S(=O)(=O)Nc1ccc2c(c1)C(=O)N([C@H](C)CO)C[C@@H](C)[C@@H](CN(C)C(=O)NC1CCCCC1)O2 | 1.08 ± 0.091 | – |
| CNC[C@H]1Oc2c(NC(=O)Nc3cccc4ccccc34)cccc2C(=O)N([C@H](C)CO)C[C@@H]1C | 0.953 ± 0.025 | – |
| O=C(C1CCOCC1)N1CC(=O)N2[C@H](CO)[C@@H](c3ccc(-c4cccnc4)cc3)[C@@H]2C1 | 1.08 ± 0.088 | – |
| COc1cccc(CN2C[C@]3(CCN(CC3)S(C)(=O)=O)c3c([C@@H]2CO)n(C)c2cc(OC)ccc32)c1 | 0.932 ± 0.14 | – |
| O=S(=O)(c1ccccc1F)N1CC[C@@H]2[C@@H](CO)Nc3ccc(C4=CCCCC4)cc3[C@@H]21 | 1.06 ± 0.094 | – |
| COc1ccc2c3c([C@H](CO)N(C[C@]33CCN(C)CC3)S(=O)(=O)c3cn(C)cn3)n(C)c2c1 | 0.9787 ± 0.0052 | – |

| Compound | viability index [1] | viability index (library set: Broad Institute Blood Stage) |
| --- | --- | --- |
| CCCC(=O)Nc1ccc2c(c1)OC[C@@H](C)N(CC1CCOCC1)C[C@@H](C)[C@@H](OC)CN(C)C2=O | 1.01 ± 0.031 | – |
| COCc1cn(CC[C@@H]2CC[C@@H](NC(=O)Nc3c(C)noc3C)[C@@H](CO)O2)nn1 | 1.04 ± 0.059 | – |
| CC(C)NC(=O)Nc1cccc2c1O[C@H](CN(C)C(=O)Nc1ccccc1)[C@H](C)CN([C@@H](C)CO)C2=O | 0.692 ± 0.19 | – |
| COCC(=O)N1CC(=O)N2[C@H](CO)[C@H](c3ccc(-c4ccncc4)cc3)[C@@H]2C1 | 1.08 ± 0.061 | – |
| CCCN(C)C[C@H]1OCCCC[C@@H](C)Oc2ccc(NC(=O)CCCN(C)C)cc2C(=O)N([C@H](C)CO)C[C@@H]1C | 1.12 ± 0.18 | – |
| O=C(C[C@H]1CC[C@H](NC(=O)C2CCOCC2)[C@H](CO)O1)NCC1CCCCC1 | 1.16 ± 0.098 | – |
| Cc1ccc(NC(=O)Nc2ccc3c(c2)C(=O)N(C)[C@H]2CC[C@H](CC(=O)NCC(F)(F)F)O[C@@H]2CO3)cc1 | 1.16 ± 0.065 | – |
| CCC(=O)N1[C@@H](CO)[C@@H](c2ccc(C3=CCCC3)cc2)C12CN(C(=O)COC)C2 | 1.0554 ± 0.00028 | – |
| COc1ccc2c3c([C@@H](CO)N(CC4CCCC4)C[C@]33CN(C3)C(=O)Nc3ccccc3)n(C)c2c1 | 0.91 ± 0.086 | – |
| O=S(=O)(c1cccc(F)c1)N1CC[C@@H]2[C@H]1c1cc(Br)ccc1N[C@@H]2CO | 1.196 ± 0.0051 | – |
| N#C[C@@H]1N[C@@H](CO)[C@@H]1c1ccc(C#Cc2ccccc2F)cc1 | 1.046 ± 0.01 | – |
| Cc1cccc(S(=O)(=O)N2C[C@@H](O)COC[C@@H]3O[C@@H](CC(=O)Nc4ccccc4)CC[C@H]32)c1 | 1.1 ± 0.015 | – |
| CCCNC(=O)N1[C@H](C#N)[C@H](c2ccc(-c3ccccc3F)cc2)[C@H]1CO | 1.06 ± 0.055 | – |
| Cc1ccccc1-c1ccc([C@@H]2[C@H]3CNC[C@@H]2N3Cc2ccc3c(c2)OCO3)cc1 | 1.02 ± 0.037 | – |
| COc1ccc(CN(C)C[C@H]2OCCCC[C@@H](C)Oc3ccc(NC(=O)C4CCCCC4)cc3C(=O)N([C@@H](C)CO)C[C@H]2C)cc1 | 1.04 ± 0.029 | – |
| O=C(c1ccccn1)N1C[C@@H]2[C@H](c3ccccc31)[C@@H](CO)N2C(=O)C1CCCCC1 | 1.03 ± 0.039 | – |
| CCCC#Cc1ccc2c(c1)[C@H]1[C@H](CCN1S(=O)(=O)c1cccc(F)c1)[C@H](CO)N2C | 1.079 ± 0.002 | – |
| CCS(=O)(=O)Nc1ccc2c(c1)C(=O)N(C)[C@@H]1CC[C@@H](CC(=O)NCCCN3CCOCC3)O[C@H]1CO2 | 1.07 ± 0.087 | – |
| CN(C)C(=O)c1ccc(-c2ccccc2[C@@H]2[C@@H](C#N)N(C(=O)C3CC3)[C@H]2CO)cc1 | 1.16 ± 0.12 | – |
| OC[C@H]1[C@H](c2ccc(-c3cccc(F)c3)cc2)[C@@H]2CN(Cc3cncnc3)CCCCN12 | 1.08 ± 0.1 | – |
| C/C=C/c1ccc2n(c1=O)C[C@H]1[C@H](CO)[C@@H](C(=O)NCCCN(C)C)N(Cc3cocn3)[C@@H]21.C/C=C\c1ccc2n(c1=O)C[C@H]1[C@H](CO)[C@@H](C(=O)NCCCN(C)C)N(Cc3cocn3)[C@@H]21 | 1.04 ± 0.013 | – |
| C[C@@H]1CN([C@H](C)CO)C(=O)c2cccc(N(C)C)c2O[C@H]1CN(C)Cc1ccncc1 | 1.06 ± 0.022 | – |
| COc1ccc(CNC(=O)C[C@@H]2CC[C@@H](NC(=O)CN(C)C)[C@@H](CO)O2)cc1 | 1.08 ± 0.1 | – |
